Test results as given in PubChem BioAssay AID504332 (National Center for Advancing Translational Sciences (NCATS), 2011).
Hit rate of the full screen: of about 350,000 compounds, about 31,000 (8.9%) were called active. The inconclusive results got no clear call from the source; some entries with a clear call stand among them for comparison. Calls come from the whole dose curve; as a rule, active = well fitted inhibition curve with a large enough effect; inconclusive = small, poorly fitted or top-dose-only effect; inactive = no such curve, though single readings can be large or run the other way. A potency beside an inconclusive call is a rough fit, not a confirmed value.

target: Histone-lysine N-methyltransferase EHMT2 (Homo sapiens) (UniProt Q96KQ7); experiment: qHTS Assay for Inhibitors of Histone Lysine Methyltransferase G9a; settings: G9a H3K9 monomethylation, AlphaScreen, 2 h; activity, negative = inhibition: at 59 µM (top of the series) unless noted; note: nearly all actives have a fitted effect of over 75% in size
Sequence of UniProt Q96KQ7 (Q96KQ7 whole entry, looked up): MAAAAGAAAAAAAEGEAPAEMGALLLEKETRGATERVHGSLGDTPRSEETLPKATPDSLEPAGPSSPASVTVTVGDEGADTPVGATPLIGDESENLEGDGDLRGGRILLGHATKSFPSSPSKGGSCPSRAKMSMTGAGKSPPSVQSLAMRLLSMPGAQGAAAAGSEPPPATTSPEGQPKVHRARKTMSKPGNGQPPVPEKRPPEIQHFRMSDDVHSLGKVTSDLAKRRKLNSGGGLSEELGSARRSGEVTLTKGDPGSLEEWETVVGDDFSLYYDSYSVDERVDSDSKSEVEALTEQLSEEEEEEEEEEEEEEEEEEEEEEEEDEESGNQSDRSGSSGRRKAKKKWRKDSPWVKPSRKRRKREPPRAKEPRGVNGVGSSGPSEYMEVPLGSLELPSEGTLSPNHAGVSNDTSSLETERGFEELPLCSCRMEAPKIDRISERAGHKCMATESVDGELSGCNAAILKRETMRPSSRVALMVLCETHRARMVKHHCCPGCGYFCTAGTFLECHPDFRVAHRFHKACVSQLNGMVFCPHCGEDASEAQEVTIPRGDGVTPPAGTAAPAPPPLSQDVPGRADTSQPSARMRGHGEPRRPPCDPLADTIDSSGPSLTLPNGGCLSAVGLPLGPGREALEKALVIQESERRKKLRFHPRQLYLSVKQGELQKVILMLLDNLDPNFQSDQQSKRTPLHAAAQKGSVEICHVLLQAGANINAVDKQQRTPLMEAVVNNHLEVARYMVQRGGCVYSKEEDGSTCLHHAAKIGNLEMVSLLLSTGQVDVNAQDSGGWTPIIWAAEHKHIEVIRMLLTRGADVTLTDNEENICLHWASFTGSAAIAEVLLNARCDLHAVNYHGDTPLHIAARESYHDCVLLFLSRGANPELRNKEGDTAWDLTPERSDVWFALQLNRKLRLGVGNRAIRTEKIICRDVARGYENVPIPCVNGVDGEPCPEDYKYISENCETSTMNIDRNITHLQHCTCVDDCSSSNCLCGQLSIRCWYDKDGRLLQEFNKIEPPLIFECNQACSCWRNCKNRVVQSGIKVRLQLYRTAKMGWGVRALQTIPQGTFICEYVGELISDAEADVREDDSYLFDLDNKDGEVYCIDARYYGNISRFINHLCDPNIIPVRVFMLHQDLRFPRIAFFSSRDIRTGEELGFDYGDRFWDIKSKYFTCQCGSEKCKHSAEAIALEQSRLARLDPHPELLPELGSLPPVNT
Procedure, shortened: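 Enzyme 20 nM + cpd, 15 min RT; add b-H3K9 pep 500 nM / SAM 20 uM; 2 h RT; anti-H3K9me1 Ab 0.5 ug/mL + SA donor / anti-rabbit acceptor beads 20 ug/mL each, 10 min; AlphaScreen read.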
% is set by controls: 0 for no effect and ±100 for the full control effect; potency is the fitted concentration of half-maximal effect; tags give direction and shape of the fitted curve.

SMILES	Potency	activity, negative = inhibition
Cc1ccc(NC(=O)c2ccc(NC(=O)N3CCSc4ncccc43)cc2)cc1Cl	inconclusive: 39.8 µM [inhibitor, partial curve, poor fit]	
COc1ccc(N2C(=O)CC(NNC(=O)c3cccnc3)C2=O)cc1 (stereo not given)	inconclusive: 89.1 µM [inhibitor, single point]	
COc1ccccc1NC(=O)CSc1nnc(C2CCCCC2)o1		inconclusive: -90.3% [inhibitor] [at 2.33 µM]
CN(C(=O)c1ccccc1)C1c2c(ccc3ccccc23)OCC1CO (stereo not given)	inconclusive: 89.1 µM [inhibitor, single point]	
CCS(=O)(=O)Nc1ccc(-c2ccc(NS(=O)(=O)CC)c(OC)c2)cc1OC	inconclusive: 20 µM [inhibitor, single point]	
Cc1ccc(CNC(=O)Cn2ncc3c(C)n(Cc4ccc(Cl)cc4)c(C)c3c2=O)cc1		inactive: -4.68%
CC(C)CCNC(=O)C12CN(Cc3ccccc3)CC1C(c1ccc([N+](=O)[O-])cc1)=NO2 (stereo not given)		inconclusive: -92.5% [inhibitor]
COc1ccc(NC(=O)c2cccc(Oc3ccc([N+](=O)[O-])cc3Cl)c2)cc1	inconclusive: 17.8 µM [inhibitor, single point]	
O=C1CC(SCc2nc3ccccc3[nH]2)C(=O)N1c1ccc(F)c(Cl)c1 (stereo not given)	active: 39.8 µM	
Cc1ccnc(Nc2nc(-c3ccccc3)cs2)c1		inactive: -2.36% [at 102 µM]
COc1ccc(-n2nnnc2-c2cccnc2)cc1		inactive: -3.54%
CCOc1cc(NC(=S)NCC2CCCO2)c(OCC)cc1NC(=O)c1ccccc1F (stereo not given)	inconclusive: 22.4 µM [inhibitor, full curve]	
CSc1ccc(CNCc2c(C(=O)O)c(C)n(Cc3ccc(F)cc3Cl)c2C)cc1		inactive: -0.905%
S=C(Nc1ccccc1)N1CCn2cccc2C1c1cccnc1 (stereo not given)	inconclusive: 79.4 µM [inhibitor, partial curve, poor fit]	
CC(=O)Nc1cccc(C(=O)N/N=C/c2ccc(C)o2)c1	inconclusive: 35.5 µM [inhibitor, partial curve, poor fit]	
O=C(Cc1sc(-c2ccccc2)nc1-c1ccccc1)Nc1ccccc1		inactive: 12.2% [at 12.7 µM]
CC1=C/C(=C\c2ccc3c(c2)OCO3)C(=O)S1	active: 25.1 µM	
CC(C(=O)O)n1cnc2sc3c(c2c1=O)CCCC3 (stereo not given)	inconclusive: 14.1 µM [inhibitor, partial curve, poor fit]	
Cc1cccc(N(CC(=O)N/N=C/c2cc([N+](=O)[O-])ccc2Cl)S(C)(=O)=O)c1C	inconclusive: 89.1 µM [inhibitor, single point]	
Cc1cccc(N2CCN(C(=O)Cn3cccc3)CC2)c1C	active: 50.1 µM	
Cc1ccc(Cl)c2sc(N3CCN(C(=O)C4CC4)CC3)nc12		inactive: -6.45%
CC(=O)N1CCN(C(=O)c2cc(-c3ccc(Cl)s3)nc3ccccc23)CC1		inactive: 1.51% [at 102 µM]
CCOc1ccc(CN2CCNC(=O)C2CC(=O)NCCCC2CCCC2)cc1 (stereo not given)	inconclusive: 79.4 µM [inhibitor, single point]	
CSc1nsc(/C=C/Nc2ccc(Cl)cc2)c1C#N		inactive: -17.7% [at 12.7 µM]

SMILES	Potency	activity, negative = inhibition
CCNc1c([N+](=O)[O-])ncn1C		inactive: 1.99%
COCCC(=O)N1CCC(Oc2ccc(C(=O)N3C[C@@H]4CCC[C@H]3C4)cc2)CC1		inactive: 13.3% [at 102 µM]
COC(=O)c1ccccc1NC(=O)c1nc2nc(C)cc(C)n2n1		inactive: -2.76% [at 12.7 µM]
CCCCCCOC(=O)C[N+](C)(C)CCOC1CC2CCC1(C)C2(C)C (stereo not given)	inconclusive: 0.316 µM [inhibitor, full curve, poor fit]	
C=CCN1C(=O)C2(NNc3ccccc3O2)c2ccccc21 (stereo not given)	active: 15.8 µM	
Cc1nnc(NC(=O)CSc2nccn2C)s1	inconclusive: 25.1 µM [inhibitor, single point]	
C=CCn1c(SCC(=O)Nc2ccc(N(C)C)cc2)nnc1-c1cccc(C)c1	active: 7.94 µM	
CCc1cc(=O)oc2cc(C)cc(OCC(=O)NC(Cc3c[nH]c4ccc(O)cc34)C(=O)O)c12 (stereo not given)	inconclusive: 70.8 µM [inhibitor, partial curve, poor fit]	
CCOc1ccc2cc(C3CC(c4ccco4)=NN3S(=O)(=O)c3ccccc3)c(Cl)nc2c1 (stereo not given)	active: 10 µM	
COc1cc2c(cc1OC)CN(C(=O)CSc1nnc3scc(-c4ccccc4)n13)CC2	active: 14.1 µM	
CCSC1=N/C(=C\c2ccc3c(c2)OCO3)C(=O)S1		inactive: 12.7%
Cc1ccc(CN2CCc3[nH]c(=S)[nH]c(=O)c3C2)cc1	inconclusive: 50.1 µM [inhibitor, partial curve, poor fit]	
Cc1ccc2oc(=O)c(/C=C(\O)c3sc(C)nc3C)nc2c1	inconclusive: 8.91 µM [inhibitor, partial curve, poor fit]	
NC(=O)C1(N2CCCCC2)CCN(C(=O)CCCn2c(=O)[nH]c3ccsc3c2=O)CC1	inconclusive: 89.1 µM [inhibitor, single point]	
O=C(Cn1c(=O)n2nc(-c3ccccc3)nc2c2ccccc21)Nc1ccccc1C(F)(F)F	inconclusive: 28.2 µM [inhibitor, single point]	
COc1cc(/C=N/Nc2ccccn2)ccc1O	inconclusive: 35.5 µM [inhibitor, partial curve]	
Cc1onc(-c2ccccc2)c1C(=O)NC(=S)NNC(=O)c1ccc(O)cc1O	inconclusive: 12.6 µM [inhibitor, single point]	
CCCCc1ccc(NC(=O)CN2C(=O)NC(Cc3ccccc3)C2=O)cc1 (stereo not given)		inactive: 4% [at 102 µM]
C#CCOCCOCCOCCNc1nc(N2CCN(C(=O)[C@H]([C@@H](C)CC)n3cc([C@@H](N)CO)nn3)CC2)nc(N2CCN(C(=O)[C@H](Cc3ccc(O)cc3)n3cc([C@@H](N)CC(C)C)nn3)CC2)n1		inconclusive: -100% [inhibitor]
O=C1[C@@H]2CSC(c3ccc(F)cc3)N2C(=O)N1c1ccc(Cl)cc1 (stereo not given in full)		inactive: 34.1%
C=C[C@H](N)CCC(=O)O		inactive: 20.7% [at 21.5 µM]
O=C(/C=C/Nc1ccc(F)cc1F)c1cccs1	active: 14.1 µM	
S=c1[nH]nc(C2CCCCC2)n1/N=C/c1ccncc1	inconclusive: 2.82 µM [inhibitor, full curve, poor fit]	
O=C(O)c1ccc(COc2ccc3ccccc3c2)o1	inconclusive: 70.8 µM [inhibitor, partial curve, poor fit]	

SMILES	Potency	activity, negative = inhibition
COc1ccccc1C(CNC(=O)C(C)Oc1ccc(Br)cc1)N1CCCC1 (stereo not given)	inconclusive: 50.1 µM [inhibitor, partial curve, poor fit]	
Cc1ccc(CC(=O)Nc2nc3c(s2)CCCC3)cc1	active: 50.1 µM	
CCOC(=O)CNC(=O)CSc1nc2cccnc2n1CC	inconclusive: 22.4 µM [inhibitor, single point]	
CN1C(=O)/C(=C/c2ccco2)SC1=Nc1ccc(N2CCOCC2)cc1	active: 7.08 µM	
Cc1ccc(CNC(=O)CCCn2nc(C)n3ccnc3c2=O)cc1		inactive: 2.34% [at 12.7 µM]
O=C(O)c1cc(C(F)(F)F)nc2ccccc12	inconclusive: 79.4 µM [inhibitor, partial curve]	
CCCCCC/C=C1\CC(C(=O)OCC)Oc2ccccc21 (stereo not given) (tested in a mixture with another compound)		inactive: 170% [at 102 µM]
Cc1ccc(-c2nc(CCNC(=O)C(=O)Nc3ccc(C)c(C)c3)cs2)cc1		inactive: 17.2%
O=C(COC(=O)Cc1cccc(C(F)(F)F)c1)NCC1CCCO1 (stereo not given)	inconclusive: 3.55 µM [inhibitor, single point]	
Cc1cccc(C2(c3cccc(C)c3)CC2C(=O)NCC2CCCO2)c1 (stereo not given)		inactive: 17% [at 102 µM]
O=C(CN1CCN(c2ccc(O)cc2)CC1)Nc1cc(S(=O)(=O)N2CCCCC2)ccc1Cl	active: 7.94 µM	
COc1ccccc1NC(=O)C1CCCN(c2nnc(C)c3c(C)n(-c4ccccc4)nc23)C1 (stereo not given)	inconclusive: 4.47 µM [inhibitor, partial curve, poor fit]	
COc1ccc(NC(=O)c2cc(-c3cc(OC)c(OC)c(OC)c3)nc3ccccc23)cc1OC	inconclusive: 79.4 µM [inhibitor, partial curve, poor fit]	
COc1ccccc1CCC(=O)Nc1ccc(S(=O)(=O)Nc2cc(C)nc(C)n2)cc1	active: 50.1 µM	
O=C(N1CCN(c2ccccc2)CC1)C(F)(F)C(F)F	inconclusive: 89.1 µM [inhibitor, single point]	
Cc1cc(C)n2nc(C(=O)NC(c3ccccc3)c3ccccc3)nc2n1		inactive: 20.1% [at 102 µM]
COc1ccccc1CC1(C)NC(=O)N(CC(=O)N2CC(C)OC(C)C2)C1=O (stereo not given)	inconclusive: 79.4 µM [inhibitor, partial curve]	
COc1ccc(NC2=CC(=S)NC(C)(C)C2)cc1	inconclusive: 70.8 µM [inhibitor, partial curve, poor fit]	
Cc1ccc(NC2=C(c3ccc(C(F)(F)F)cc3)C(=O)c3ccccc32)cc1F	inconclusive: 6.31 µM [inhibitor, partial curve, poor fit]	
COc1ccc(S(=O)(=O)Nc2ccc(-c3ccc4nnc(C)n4n3)cc2)c(OC)c1	inconclusive: 8.91 µM [inhibitor, single point]	
CCOc1ccccc1NC(=O)CSc1nc2ccccc2c2nc(CCn3cncc3C)nn12	inconclusive: 31.6 µM [inhibitor, partial curve, poor fit]	
CCOC(=O)C1CCN(Cc2cc(C(C)(C)C)c(O)c(C(C)(C)C)c2)CC1	active: 56.2 µM	
